Assay results reported in PubChem BioAssay AID1159614 (National Center for Advancing Translational Sciences (NCATS), 2016).
In all, about 45,000 compounds went through this assay and about 65 (0.1%) were called active. Calls come from the whole dose curve; as a rule, active = well fitted activation curve with a large enough effect; inconclusive = small, poorly fitted or top-dose-only effect; inactive = no such curve, though single readings can be large or run the other way. This is one part of the list.

The compounds below were run against Galactocerebrosidase (Homo sapiens) (UniProt P54803) (assay: A Novel Cell-Based Assay to Identify Small Molecules for B -Galactocerebrosidase). Conditions: 145M-Twi-hGALC-G270D cells (Twitcher mouse brain line with human GALC G270D), HMU-beta-Gal fluorescence, 48 h; series mostly up to 57.5 µM; activation: at the top concentration.
UniProt P54803, sequence (P54803 whole entry, looked up): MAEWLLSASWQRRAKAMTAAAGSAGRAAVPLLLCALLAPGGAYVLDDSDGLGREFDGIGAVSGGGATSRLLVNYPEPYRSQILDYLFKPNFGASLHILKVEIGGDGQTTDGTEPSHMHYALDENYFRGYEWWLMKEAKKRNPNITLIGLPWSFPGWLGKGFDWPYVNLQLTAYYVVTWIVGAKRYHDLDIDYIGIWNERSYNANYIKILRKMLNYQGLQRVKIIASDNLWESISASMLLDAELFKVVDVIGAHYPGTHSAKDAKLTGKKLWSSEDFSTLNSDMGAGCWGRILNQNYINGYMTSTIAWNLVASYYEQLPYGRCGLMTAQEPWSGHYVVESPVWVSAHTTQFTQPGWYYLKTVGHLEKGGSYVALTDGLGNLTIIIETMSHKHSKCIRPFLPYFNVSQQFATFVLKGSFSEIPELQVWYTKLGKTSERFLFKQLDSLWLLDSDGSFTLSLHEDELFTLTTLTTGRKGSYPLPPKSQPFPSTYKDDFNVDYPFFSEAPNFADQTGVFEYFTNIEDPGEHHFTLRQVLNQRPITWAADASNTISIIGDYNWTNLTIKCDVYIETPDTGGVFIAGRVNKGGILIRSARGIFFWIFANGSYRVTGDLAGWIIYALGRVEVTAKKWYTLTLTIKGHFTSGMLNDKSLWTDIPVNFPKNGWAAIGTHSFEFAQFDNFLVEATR
Summary of the method: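 Fluorogenic HMU-b-Gal hydrolysis (0.1 mM final, pH 5.2 citrate-phosphate with 1 mg/mL sodium taurocholate; carbonate stop buffer) measures mutant GALC activity after compound treatment of live 145M-Twi Twitcher brain cells stably carrying human GALC-G270D, with wild-type GALC line alongside; activation sought.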
Note: 0% is about no effect; nearly all actives have a fitted effect of over 65% in size.

activation, inactive:
O=C(Cn1c(SCC(=O)Nc2ccc(F)cc2)nc2ccccc21)NCc1ccc(F)cc1 -6.82%, COc1ccc(S(=O)(=O)N(CC(=O)Nc2ccccc2Br)Cc2ccccc2)cc1 -15.7%, CC(C)OCCCn1c(=O)c2ccccc2n2c(-c3ccc(F)cc3)nnc12 -12.2%, CCCCCCCC/C=C/C(=O)O -12.7%, Cn1c(=NC(=O)c2ccc(S(=O)(=O)N3CCCc4ccccc43)cc2)sc2cc(F)ccc21 10.8%, Cc1ccc(S(=O)(=O)NC(=O)NC2CCCC2)cc1 -13.2%, Cc1cccc(C(=O)Nc2c(-c3ccccc3)nc3cc(C)ccn23)c1 -4.23%, COc1ccc(NC(=O)C(=O)NCCc2csc(-c3ccc(Cl)cc3)n2)cc1OC -19.9%, COc1ccc(-c2nc3scc(CCNS(=O)(=O)c4ccc(C)cc4)n3n2)cc1 -4.73%, COc1ccccc1NC(=O)C(=O)NCC(c1ccc2c(c1)OCO2)N1CCN(C)CC1 (stereo unspecified) -15%, CCN1CCN(c2ncc3c(n2)CCN(Cc2cc(F)cc(F)c2)C3)CC1 -1.37%, CCOc1cc2sc(N3CCC(C(=O)Nc4ccc(C)cc4C)CC3)nc2cc1Br -17.4%, CN(C)c1ccc(C(CNC(=O)c2ccccc2)N2CCc3ccccc32)cc1 (stereo unspecified) -10.9%, CCc1ccc(CN(Cc2ccco2)c2cnc(S(C)(=O)=O)nc2C(=O)Nc2cccc(C)c2)cc1 -7.47%, COC(=O)c1ccc(NC(=O)CSc2nc(=O)[nH]c3c2CCCC3)cc1 -1.07%, CCOC(=O)COc1ccc([N+](=O)[O-])cc1-c1ccnc2cc(-c3ccc(Cl)cc3)nn12 -0.949%, Cc1ccccc1C(=O)Nc1sc2c(c1C(=O)NCc1ccco1)CCC(C(C)(C)C)C2 (stereo unspecified) -12.8%, COCCCNC(=O)c1oc2c(c1C)-c1nn(Cc3ccccc3Cl)cc1CC2 -5.9%, CNC(=O)C1CCC(Cn2c(=O)c3sccc3n(CC(=O)NCc3ccccc3)c2=O)CC1 (stereo unspecified) -10%, Cc1ccc(SCCNC(=O)CN(c2ccccc2)S(=O)(=O)N(C)C)cc1 -9.3%, Cc1cccc(-c2noc(-c3ccccc3OCC(=O)Nc3ccc([N+](=O)[O-])cc3)n2)c1 -3.38%, CC(C)CC(=O)Nc1cccc(-c2nc3ccccc3[nH]2)c1 -9.27%, CCC1=Nc2cc(C(=O)NCCCOC)ccc2Sc2ccc(Br)cc21 -1.25%, COc1ccccc1CNc1nc(-c2ccco2)nn1S(=O)(=O)c1ccc2ccccc2c1 -1.03%, CCc1cnc2c(c1SCC(=O)c1ccccc1)c(=O)n(C)c(=O)n2C -5.57%, CCC(=O)N1CCc2cc(Br)cc(S(=O)(=O)N3CCCC(C(=O)Nc4ccc(C(C)C)cc4)C3)c21 (stereo unspecified) 5.62%, CCOc1cc(C(=O)OCc2cc(=O)n3nc(CC)sc3n2)cc(OCC)c1OCC -16.5%, CC1CCC(C(=O)NC(C(=O)OCC(=O)c2ccccc2)C(C)C)CC1 (stereo unspecified) -16.2%, CCN1CCc2nc3sc(C(=O)Nc4cccc(Cl)c4C)c(N)c3cc2C1 -10.9%, COc1ccc(-c2ccc(NS(=O)(=O)c3ccc(OC)c(OC)c3)cc2)nn1 -17%, Cc1scc2c1N(C(=O)CN1CCN(C)CC1)c1ccccc1NC2=O -11.4%, CCOc1sc2nc(C)n(CC(=O)Nc3cccc(C)c3)c(=O)c2c1C -18.9%, CCCCC(=O)N(c1ccc2oc(C)c(C(C)=O)c2c1)S(=O)(=O)c1ccc(F)cc1C -34.3%, COc1ccc(OCc2nc3ccccc3n2Cc2ccccc2Cl)cc1 -5.35%, COC(=O)c1ccccc1NC(=O)c1c(C)oc2ncn(C)c(=O)c12 0.027%, Cc1ccc(S(=O)(=O)NC2(C(F)(F)F)C(=O)Nc3c2c(=O)[nH]c(=O)n3-c2ccccc2)cc1 (stereo unspecified) -0.252%, Cc1ccc(CNS(=O)(=O)c2cc3[nH]c(=O)c(=O)[nH]c3cc2C)cc1 -4.66%, Cc1c(C(=O)NCc2cccc(Cl)c2)sc2nc3n(c(=O)c12)CCC3 -17.6%, O=C(COC(=O)c1cc(-c2ccccc2)nc2ccccc12)c1ccc(Br)cc1 -1.46%, Cc1ccc(C(=O)Nc2ccc3nc(SCC(=O)N4CCCc5ccccc54)sc3c2)cc1 -17.1%, CSc1nc2sc3c(c2c(=O)n1Cc1ccccc1)CCC(C(C)(C)C)C3 (stereo unspecified) -13%, O=S(=O)(c1ccc(Br)cc1)c1nnn2c1nc(N1CCOCC1)c1sccc12 -16.1%, NC(=O)c1nc(-c2ccc(F)c(F)c2)nc2c1[nH]c(=O)n2-c1cccc(Cl)c1 1.18%, CCN1CCN(CCCNC(=O)c2cnn(-c3ccc(C)cc3C)c2C2CCN(C(=O)OC(C)(C)C)CC2)CC1 22%, Cc1cccc(C)c1OCC(=O)NCC1(N2CCOCC2)CCCCC1 -7.04%, CCOC(=O)c1ccc(-n2c(N)c(C(=O)OC)c3nc4ccccc4nc32)cc1 -9.55%, CCc1ccccc1NC(=O)C1=CC(c2ccc(OC)c(OC)c2)=NS(=O)(=O)N1C -9.43%, COc1ccc(OC(=O)c2nc(SCc3ccc(C)cc3)ncc2Cl)cc1 -18.7%, CC1CCCN(c2csc3ccc(F)cc3c2=O)C1 (stereo unspecified) -12.6%, Cc1ccc(NC(=O)Cn2c(=O)n(Cc3ccccc3)c(=O)c3c(C)c(C)sc32)c(C)c1 -7.42%, CCC(Cc1ccccc1)NC(=O)c1ccc2nc(N3CCC(C)CC3)sc2c1 (stereo unspecified) -6.65%, Cc1ccc(-c2nc(C)c(CCNC(=O)C(=O)Nc3ccc4c(c3)OCCO4)s2)cc1 -25.8%, CCCOc1ccc(C(=O)Nc2cccc(-c3nc4ccccc4[nH]3)c2)cc1 -4.14%, COc1ccccc1-c1nc(S(=O)(=O)c2ccc(Cl)cc2)c(N2CCCCCC2)o1 -4.54%, COc1ccc(-n2nc3ccc(NC(=O)c4cc5ccccc5o4)cc3n2)cc1Cl -9.53%, CCOc1ccc(CNC(=O)C2CCCN(c3nc4c(C)cc(C)cc4s3)C2)cc1 (stereo unspecified) -17.2%, CCC(CC)C(=O)Nc1cccc(-c2nc3cccnc3s2)c1C 2.73%, CCOc1cc(C2C(C(=O)OC)=C(C)NC3=C2C(=O)c2ccccc23)ccc1O (stereo unspecified) -6.38%, CC1(C)O[C@H]2[C@@H](O1)[C@@H](C(=O)Nc1ccccc1O)O[C@@H]1OC(C)(C)O[C@@H]12 -6.54%, CCc1ccc(-c2nn(CC(=O)NC3CCCC3)c3c2cnc2ccc(C)cc23)cc1 -2.54%, Cc1ccc(C(C)C)c(OCC(=O)Nc2c(C(=O)c3ccccc3)oc3ccccc23)c1 1.73%, Cc1cccc(/C=C/c2onc(C)c2S(=O)(=O)N2CCC(C(=O)N3CCC(C)CC3)CC2)c1 -14.8%, FC(F)(F)c1ccccc1-n1ccnc1 -13.9%, Cc1cc(Nc2cccc(C(F)(F)F)c2)nc2ccc(NC(=O)c3ccc(N(C)C)cc3)cc12 -22.4%, O=C(Nc1cccc(C(=O)N2CCCCC2)c1)c1nsc2ccccc12 -7.6%, Cc1cc(O)c(C(c2ccc(F)cc2)N2CCCCC2)c(=O)n1Cc1ccco1 (stereo unspecified) -14.1%, CCc1ccc(-n2nc(C)c3c(C(=O)Nc4cccc(C(F)(F)F)c4)cc(C)nc32)cc1 -4.38%, CCOc1ccccc1NC(=O)c1c(C)cc(C)nc1SCC(=O)c1cccc(OC)c1 -15.5%, Cc1ccc(NC(=O)c2sc3ccccc3c2Cl)cc1 7.87%, Cc1ccc(CN2C(=O)c3ccccc3C2C(=O)NC2CCCCCC2)cc1 (stereo unspecified) -17.7%, Cc1ccc(NC(=O)CCCn2nc(C)c3c(C)n(-c4ccccc4)nc3c2=O)cc1Cl -13%, O=C(CN1CCN(c2ccc(Cl)cc2)CC1)Nc1ccc(F)cc1F -15.3%, Cc1cccn2c(=O)c(/C=C(\C#N)c3nc4ccccc4n3C)c(Oc3ccc(Br)cc3)nc12 -11.2%, COc1ccc(CNC(=O)CCn2nc(C)c3c(C)n(-c4ccccc4)nc3c2=O)cc1OC -11.4%, Cc1cccc(C)c1Nc1c(-c2ccsc2)nc2ccccn12 -8.7%, COc1ccc(CNC(=O)C(=O)NCC(c2cccs2)S(=O)(=O)c2ccc(F)cc2)cc1 (stereo unspecified) 3.06%, CCOCCCn1c(=N)c(S(=O)(=O)c2ccc(C)cc2)cc2c(=O)n3cccc(C)c3nc21 -2.35%, COc1ccc(CN(CCC(c2ccc3c(c2)OCO3)c2ccccc2OC)C(C)=O)cc1 (stereo unspecified) -36.4%, CCOc1ccc(N(CC(=O)Nc2ccc(F)cc2F)S(=O)(=O)c2c(C)[nH]c(=O)[nH]c2=O)cc1 -7.29%, CN1C(=O)c2ccccc2Sc2ccc(NC(=O)Nc3ccccc3F)cc21 -20.3%, Cc1ccc(NC(=O)c2c(Nc3ccccc3C)sc(C(=O)c3ccccc3)c2N)cc1 3.99%, O=C(NCC(c1ccc2c(c1)OCO2)N1CCN(c2ccccc2)CC1)c1ccccc1F (stereo unspecified) -24%, CC(=O)N1CCCc2cc(S(=O)(=O)N(C)CC(=O)Nc3ccc(F)cc3Cl)ccc21 -13.6%, CCOC(=O)c1ccc(OCC2c3cc(OC)c(OC)cc3CCN2C(=O)Cc2ccc(F)cc2)cc1 (stereo unspecified) -48.5%, O=S(=O)(NCCc1ccccc1)c1ccc(N2CCCCS2(=O)=O)cc1 -20.1%, O=c1cc(CN2CCN(S(=O)(=O)c3ccc(Cl)cc3)CC2)nc2sc(-c3ccccc3F)nn12 6.75%, CCOc1ccc(NS(=O)(=O)c2ccc3[nH]cc(C(=O)NCc4ccco4)c(=O)c3c2)cc1 -2.65%, COc1cccc(OC(=O)CSc2nnc(-c3ccccc3OC)o2)c1 8.43%, COc1ccc(Cl)cc1NC(=O)c1cc2nc(-c3ccc4c(c3)OCO4)cc(C(F)(F)F)n2n1 -10.7%, Cc1ccc(C)c(N2CCN(c3nc4ccccc4c4nc(CCn5nc(C)cc5C)nn34)CC2)c1 -9.42%, Cc1cccc(NC(=O)c2sc3nc4n(c(=O)c3c2C)N=C(c2ccc(F)cc2)CS4)c1C -6.87%, NC(=O)CC[C@@H](N)C(=O)O -15.8%, COc1ccc(C(=O)O)cc1Nc1nc2ccc(C)cc2n2cnnc12 2.92%, Cc1ccc(N2C(=O)CS(=O)(=O)C23C(=O)N(Cc2cccc(F)c2)c2ccccc23)cc1Cl (stereo unspecified) -14.1%, O=C(CSc1nc(-c2ccc(Cl)cc2)nc2c1Cc1ccccc1O2)N1CCCCC1 2.4%, CO/N=C(\C(=O)N[C@@H]1C(=O)N2C(C(=O)O)=C(CSc3nc(=O)c(O)nn3C)CS[C@H]12)c1csc(N)n1 -21%
